{
  "sequences": {"note": "By UniProt entry, the sequences of proteins in these tests, tags left out. Where a name states a change or a piece, a line headed by the entry shows the natural chain unless it says otherwise. Chains listed by the source or under a name are the forms on record and can include a tag or linker.", "UniProt Q5ZHZ0": "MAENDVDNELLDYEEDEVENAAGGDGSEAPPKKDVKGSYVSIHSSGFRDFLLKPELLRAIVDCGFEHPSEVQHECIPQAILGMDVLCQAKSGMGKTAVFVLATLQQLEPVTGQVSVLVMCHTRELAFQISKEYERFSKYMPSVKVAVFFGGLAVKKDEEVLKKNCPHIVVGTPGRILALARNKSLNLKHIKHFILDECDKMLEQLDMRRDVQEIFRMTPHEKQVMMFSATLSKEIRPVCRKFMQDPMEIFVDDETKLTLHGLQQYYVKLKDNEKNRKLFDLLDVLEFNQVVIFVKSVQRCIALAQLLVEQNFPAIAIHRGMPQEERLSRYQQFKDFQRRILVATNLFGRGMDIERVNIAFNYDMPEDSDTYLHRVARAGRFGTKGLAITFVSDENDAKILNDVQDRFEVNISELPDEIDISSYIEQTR", "UniProt O00148": "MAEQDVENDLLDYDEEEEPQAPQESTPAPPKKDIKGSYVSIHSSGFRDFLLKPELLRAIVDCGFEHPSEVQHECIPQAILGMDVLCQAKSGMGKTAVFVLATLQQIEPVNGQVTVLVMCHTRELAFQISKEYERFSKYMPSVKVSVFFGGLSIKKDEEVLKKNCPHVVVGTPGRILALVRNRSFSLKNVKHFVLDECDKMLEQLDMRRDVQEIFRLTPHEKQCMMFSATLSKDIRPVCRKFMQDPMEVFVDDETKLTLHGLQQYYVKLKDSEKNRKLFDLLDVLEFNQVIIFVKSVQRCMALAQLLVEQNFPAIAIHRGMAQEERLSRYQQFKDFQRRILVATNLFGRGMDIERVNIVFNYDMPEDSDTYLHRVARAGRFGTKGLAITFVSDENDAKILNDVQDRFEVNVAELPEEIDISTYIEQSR", "UniProt Q13838": "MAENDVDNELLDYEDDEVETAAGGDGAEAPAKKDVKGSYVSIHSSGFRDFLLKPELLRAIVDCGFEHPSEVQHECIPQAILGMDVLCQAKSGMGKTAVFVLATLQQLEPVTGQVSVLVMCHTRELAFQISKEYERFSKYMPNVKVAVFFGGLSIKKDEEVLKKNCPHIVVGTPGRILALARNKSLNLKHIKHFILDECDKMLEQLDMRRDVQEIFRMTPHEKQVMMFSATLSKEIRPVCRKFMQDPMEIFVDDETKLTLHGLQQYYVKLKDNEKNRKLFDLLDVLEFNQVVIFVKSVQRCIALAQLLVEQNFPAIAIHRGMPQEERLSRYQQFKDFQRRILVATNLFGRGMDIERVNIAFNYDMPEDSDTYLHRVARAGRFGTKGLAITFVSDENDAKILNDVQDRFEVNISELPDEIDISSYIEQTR", "FLAG-DDX39B (95A) (Q13838, form named)": "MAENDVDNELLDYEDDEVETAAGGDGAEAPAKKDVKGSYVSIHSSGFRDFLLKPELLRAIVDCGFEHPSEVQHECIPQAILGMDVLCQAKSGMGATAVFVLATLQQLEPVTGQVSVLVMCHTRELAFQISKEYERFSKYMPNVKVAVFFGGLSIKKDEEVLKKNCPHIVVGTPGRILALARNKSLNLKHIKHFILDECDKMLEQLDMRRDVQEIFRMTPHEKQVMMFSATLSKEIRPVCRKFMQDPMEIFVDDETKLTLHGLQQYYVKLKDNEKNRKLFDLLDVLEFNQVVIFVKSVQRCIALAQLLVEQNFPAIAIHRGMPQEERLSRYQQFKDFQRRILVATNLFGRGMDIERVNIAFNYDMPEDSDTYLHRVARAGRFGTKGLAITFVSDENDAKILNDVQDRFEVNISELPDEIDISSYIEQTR", "UniProt P15682": "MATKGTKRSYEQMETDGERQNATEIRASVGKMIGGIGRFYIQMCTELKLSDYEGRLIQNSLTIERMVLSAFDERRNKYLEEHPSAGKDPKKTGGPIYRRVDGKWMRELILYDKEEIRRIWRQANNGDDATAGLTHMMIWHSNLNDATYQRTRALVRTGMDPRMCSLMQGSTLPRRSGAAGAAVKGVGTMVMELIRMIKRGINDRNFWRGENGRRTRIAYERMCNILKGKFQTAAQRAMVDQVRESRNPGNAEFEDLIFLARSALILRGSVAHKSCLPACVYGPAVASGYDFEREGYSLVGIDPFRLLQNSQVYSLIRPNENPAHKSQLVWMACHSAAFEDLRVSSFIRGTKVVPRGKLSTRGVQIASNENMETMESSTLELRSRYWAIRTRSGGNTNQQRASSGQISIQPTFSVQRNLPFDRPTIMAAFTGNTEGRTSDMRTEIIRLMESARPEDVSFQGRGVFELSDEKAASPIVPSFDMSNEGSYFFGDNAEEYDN", "UniProt P05777": "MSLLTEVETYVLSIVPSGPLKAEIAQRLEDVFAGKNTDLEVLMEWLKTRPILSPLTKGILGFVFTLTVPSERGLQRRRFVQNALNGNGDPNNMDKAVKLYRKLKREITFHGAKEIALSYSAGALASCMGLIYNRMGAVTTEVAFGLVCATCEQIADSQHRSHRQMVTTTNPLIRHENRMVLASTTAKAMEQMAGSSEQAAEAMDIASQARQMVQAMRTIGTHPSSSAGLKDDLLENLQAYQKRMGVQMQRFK"},
  "source": "paper PMC9491529",
  "test_in_all_cases": "co-IP",
  "key": {"HA-DDX39B-ck (chicken)": {"biological_target": "HA-DDX39B-ck (chicken) (UniProt Q5ZHZ0)"}, "HA-DDX39A (human)": {"biological_target": "HA-DDX39A (human) (UniProt O00148)"}, "HA-DDX39B (human)": {"biological_target": "HA-DDX39B (human) (UniProt Q13838)"}, "FLAG-DDX39B (human)": {"biological_target": "FLAG-DDX39B (human) (UniProt Q13838)"}, "FLAG-DDX39A (human)": {"biological_target": "FLAG-DDX39A (human) (UniProt O00148)"}, "[1]": {"biological_target": "FLAG-DDX39B (95A) (human) (UniProt Q13838)"}},
  "note": "These are yes or no findings as the source states them, for the method shown. Binding seen in cells or lysates may run through a third protein. Some results given as binding are weak or reduced against the parent protein; the word gives no strength. For part of these data: Tags and fused reporters may be left off the sequences shown.",
  "data": [
    {"molecule": "FLAG-NP of influenza virus A/WSN/1933 (H1N1) (from UniProt P15682 1-498)", "values": [
      {"measurement": "binding", "setting": "HA-DDX39B-ck (chicken)", "result": "binds"}
    ]},
    {"molecule": "FLAG-M1 of influenza virus A/WSN/1933 (H1N1) (from UniProt P05777 1-252)", "values": [
      {"measurement": "binding", "setting": "HA-DDX39A (human)", "result": "no binding"},
      {"measurement": "binding", "setting": "HA-DDX39B (human)", "result": "no binding"}
    ]},
    {"molecule": "HA-SRSF7 (protein, UniProt Q16629 1-238) MSRYGRYGGETKVYVGNLGTGAGKGELERAFSYYGPLRTVWIARNPPGFAFVEFEDPRDAEDAVRGLDGKVICGSRVRVELSTGMPRRSRFDRPPARRPFDPNDRCYECGEKGHYAYDCHRYSRRRRSRSRSRSHSRSRGRRYSRSRSRSRGRRSRSASPRRSRSISLRRSRSASLRRSRSGSIKGSRYFQSPSRSRSRSRSISRPRSSRSKSRSPSPKRSRSPSGSPRRSASPERMD", "values": [
      {"measurement": "binding", "setting": "FLAG-DDX39B (human)", "result": "no binding"}
    ]},
    {"molecule": "MYC-CIP29 (protein, UniProt P82979 1-210) MATETVELHKLKLAELKQECLARGLETKGIKQDLIHRLQAYLEEHAEEEANEEDVLGDETEEEETKPIELPVKEEEPPEKTVDVAAEKKVVKITSEIPQTERMQKRAERFNVPVSLESKKAARAARFGISSVPTKGLSSDNKPMVNLDKLKERAQRFGLNVSSISRKSEDDEKLKKRKERFGIVTSSAGTGTTEDTEAKKRKRAERFGIA", "values": [
      {"measurement": "binding", "setting": "FLAG-DDX39A (human)", "result": "binds"},
      {"measurement": "binding", "setting": "FLAG-DDX39B (human)", "result": "binds"}
    ]},
    {"molecule": "CIP29 (in infected HEK293T cells, Fig 6L) (protein, UniProt P82979 1-210) MATETVELHKLKLAELKQECLARGLETKGIKQDLIHRLQAYLEEHAEEEANEEDVLGDETEEEETKPIELPVKEEEPPEKTVDVAAEKKVVKITSEIPQTERMQKRAERFNVPVSLESKKAARAARFGISSVPTKGLSSDNKPMVNLDKLKERAQRFGLNVSSISRKSEDDEKLKKRKERFGIVTSSAGTGTTEDTEAKKRKRAERFGIA", "values": [
      {"measurement": "binding", "setting": "[1]", "result": "no binding"},
      {"measurement": "binding", "setting": "FLAG-DDX39B (human)", "result": "binds"}
    ]},
    {"molecule": "MYC-THOC1 (protein, UniProt Q96FV9 1-657) MSPTPPLFSLPEARTRFTKSTREALNNKNIKPLLSTFSQVPGSENEKKCTLDQAFRGILEEEIINHSSCENVLAIISLAIGGVTEGICTASTPFVLLGDVLDCLPLDQCDTIFTFVEKNVATWKSNTFYSAGKNYLLRMCNDLLRRLSKSQNTVFCGRIQLFLARLFPLSEKSGLNLQSQFNLENVTVFNTNEQESTLGQKHTEDREEGMDVEEGEMGDEEAPTTCSIPIDYNLYRKFWSLQDYFRNPVQCYEKISWKTFLKYSEEVLAVFKSYKLDDTQASRKKMEELKTGGEHVYFAKFLTSEKLMDLQLSDSNFRRHILLQYLILFQYLKGQVKFKSSNYVLTDEQSLWIEDTTKSVYQLLSENPPDGERFSKMVEHILNTEENWNSWKNEGCPSFVKERTSDTKPTRIIRKRTAPEDFLGKGPTKKILMGNEELTRLWNLCPDNMEACKSETREHMPTLEEFFEEAIEQADPENMVENEYKAVNNSNYGWRALRLLARRSPHFFQPTNQQFKSLPEYLENMVIKLAKELPPPSEEIKTGEDEDEEDNDALLKENESPDVRRDKPVTGEQIEVFANKLGEQWKILAPYLEMKDSEIRQIECDSEDMKMRAKQLLVAWQDQEGVHATPENLINALNKSGLSDLAESLTNDNETNS", "values": [
      {"measurement": "binding", "setting": "FLAG-DDX39A (human)", "result": "binds"}
    ]}
  ]
}
